Data reported in publication PMC12136788.
The other results are listed elsewhere or left out.

B1: chr8:116643852:116643953:-|3pUTR|ENSG00000147677|unk|total|mutant (ssRNA)
RNA: GGGAGUUCUACAGUCCGACGAUCUGUUGUGAAUGAGGAAUCCGGAAUCCGGAGAAUGGCCGUACAUUGGGAAAAACAUAUUUCCGUAAUUUUUAUAUUUUAAAGAUAAUCACAGAUUUUGCUGUUUGUGCAUCACCAAAAUCACAACAGAGGAUUGAGCAUCA
B2: chr2:159230815:159230918:+|CDS|ENSG00000115183|unk|total|mutant (ssRNA)
RNA: GGGAGUUCUACAGUCCGACGAUCAACCUGUUCUGUUUCUACCCUGAGUGCAAGUGUCCACAAUGGGGCACAAGUGAAGGAGCCCGAAGAAAGCAAGUGCCAAAUUCCAGUCCACUCUCAAGAGAACAGGAUAACUAAGACUGUCAACAGAGGAUUGAGCAUCA
B3: chr17:59607285:59607386:+|3pUTR|ENSG00000108406|unk|FALSE|unique (ssRNA)
RNA: GGGAGUUCUACAGUCCGACGAUCUAAAUCAAAGCUCAUCAGUUCCCAUAAAUGCAGUUGUCAAAGAAAAGAUUUGGUUGCCAUAGUCAUAAGCAAUGAUACAUGAAACCAAUGAAAGACAGUACAUGUAAUAAUAUUUUCCUCCAACAGAGGAUUGAGCAUCA
B4: chr12:85803847:85803948:-|3pUTR|ENSG00000198774|unk|total|mutant (ssRNA)
RNA: GGGAGUUCUACAGUCCGACGAUCCCAAACCCAUGUUCAUUCACUGAGUGAGGUACCGUGUGGGUUACAGAGAAAAUCAGUCACCGUGUUAUUUGUUUAUGUCCUAUCUACAAAAGUUGCAAUGAUGGAAUUUGGAACCCUUCUCAACAGAGGAUUGAGCAUCA
B5: ENSG00000180263:stop:overlap|stop_codon|ENSG00000180263|stop_codon|NA|stop_codon (ssRNA)
RNA: GGGAGUUCUACAGUCCGACGAUCCAGAGGAUGCUCAUUCGGCUCAGAAGUGGAUAGAAGCAUUUCAGGAAGGCACAAUAUUGUAGCAGUAUUGGUUUCAUCUCUUCUGUGAUUCCAAAGAGGUGGAAUUUCAUCAGAAUGGAGCAACAGAGGAUUGAGCAUCA
B6: chr13:20086215:20086316:+|3pUTR|ENSG00000121741|unk|total|mutant (ssRNA)
RNA: GGGAGUUCUACAGUCCGACGAUCUGGUUUCCGGAUACUUAACAAAUACAUUCAAAUUCUUUUUUUAUUAUUAUUUAUUUGAUCCGGUAUGUUUGUAACUUUUUACAUUACAGAAUAUGAAUGAGAAUGUGCCAUGUAUAAUUUCAACAGAGGAUUGAGCAUCA
B7: ENSG00000144224:stop:overlap|stop_codon|ENSG00000144224|stop_codon|NA|stop_codon (ssRNA)
RNA: GGGAGUUCUACAGUCCGACGAUCCUCAAGAUGAUGGUGAAGAUGAAAACAACACUUGGAAUGGAAAUUCCACUCAACAGAUGUAGUGUGACAAGUAUAAUAUGUGCAAUAAUCAUUGUUUCUCUUAUGAUUUAAUUCAACUAACAACAGAGGAUUGAGCAUCA
B8: chr8:6811200:6812339:-|CDS|ENSG00000275591|control|control|control (ssRNA)
RNA: GGGAGUUCUACAGUCCGACGAUCAUGUAGAGGCUUCUGCCCCAGUGCAGGCUUCCCUGGAAGAACCCUCAGUAUCUCAGAGCUAGAGGAGCCGCUGGAGCCCAAAAGGGAGCUAAGUCACCAUGCAGCUGUUGGUGUGUGGGUCAACAGAGGAUUGAGCAUCA
B9: chr7:27141837:27142085:-|CDS|ENSG00000106004|control|control|control (ssRNA)
RNA: GGGAGUUCUACAGUCCGACGAUCGGAGCUGGAGAAGGAGUUCCACUUCAACCGUUACCUGACCCGCAGAAGGAGGAUUGAAAUAGCACAUGCUCUUUGCCUCUCCGAGAGACAAAUUAAAAUCUGGUUCCAAAACCGGAGAAUCAACAGAGGAUUGAGCAUCA
B10: chrX:101413019:101413185:+|CDS|ENSG00000126945|unk|total|mutant (ssRNA)
RNA: GGGAGUUCUACAGUCCGACGAUCGGAGCUCUUCUUAAAUUCUACUGCAGGAACAAGUGGGGGUGCUUACGAUCACAGCUAUGCCGAACUUUUUUUGAAUUCUACAGCAGGGGCAAGUGGUGGCGCUUAUGGCCGCCAAAUGAUCAACAGAGGAUUGAGCAUCA
B11: chr5:134606522:134606623:-|3pUTR|ENSG00000152700|msi1_unk|total|mutant (ssRNA)
RNA: GGGAGUUCUACAGUCCGACGAUCAACUAUAAACCAUAUUUAAAAGCUCAUCAUGUUAAAUUUUUUAUGUACUUUUCUGGAACCCGUUUUUAAAUUUCCGAUUAUAUGUCCACCUAUCUUAAGUGUACAGUUAAUAAUCCGCUUCAACAGAGGAUUGAGCAUCA
B12: chr2:159433012:159433119:-|CDS|ENSG00000123636|unk|total|mutant (ssRNA)
RNA: GGGAGUUCUACAGUCCGACGAUCGCACUUACUACCAAAACUAAAAUGCAGAGCAAGAUUAAUGAAAACAUUGCUGCUGCAAGCCGCACCCCUUUUUCCUCACCUGUAAAUCUGAGUACAAGUGGGAGAAGAACCCCUGGCAAUCAACAGAGGAUUGAGCAUCA
B13: ENSG00000120539:stop:overlap|stop_codon|ENSG00000120539|stop_codon|NA|stop_codon (ssRNA)
RNA: GGGAGUUCUACAGUCCGACGAUCCCUCCUAUUUUGAAGCCAGGAAUACUGCUCAGCACCUGACUGUAUCUGGAUUUAGUCUGUAGCACAAAAAUUUUCCUUUUAGUCUAGCCUUGUGUUAUAGAAUGAACUUGCAUAAUUAUACAACAGAGGAUUGAGCAUCA
B14: chr4:41955281:41955382:+|3pUTR|ENSG00000109133|msi1|total|mutant (ssRNA)
RNA: GGGAGUUCUACAGUCCGACGAUCGCCGGGGGAGGAGUUGUGGGGGAAUAAUGUGCAUUUCAGUCUCAACGCACCGAUAAAUUCCGGGGAAUUGGAUGUAUUAUUCAACUUUGAUUUGGGUUGUAAAAUGUGUUAAAUCCUGUUCAACAGAGGAUUGAGCAUCA
B15: chr1:156243319:156244403:-|three_prime_utr|ENSG00000160781|control|control|control (ssRNA)
RNA: GGGAGUUCUACAGUCCGACGAUCACCAACAGGGGCUGAGGAGAGAGGGCACAGGAGAGAGGGCAGAGAAGAGGAGGGGUGUCUAGGGGGACUGGCAGAGUGUGAGAGGGACCGUGAGGGGGCUCUUGAUGGGAGUGGAAGAAGCAACAGAGGAUUGAGCAUCA
B16: chr6:52498635:52498743:-|3pUTR|ENSG00000065308|msi1|FALSE|unique (ssRNA)
RNA: GGGAGUUCUACAGUCCGACGAUCAAAGGGACACGGAUUGUGACAGUUUCACCCCAUUUGUUUCUAACCCCGCUGCCCAGGAUUAGGGUCUGUGGUGUGUUCUGUUUUGUUUUUGGUUUCUCCCUUGUGUCAGUUCUCUUCUGGCAACAGAGGAUUGAGCAUCA
B17: chr1:178849534:178851128:-|three_prime_utr|ENSG00000116194|control|control|control (ssRNA)
RNA: GGGAGUUCUACAGUCCGACGAUCCUACACAGAAAGUUUUUAAAAUGAAUUUUACCGUAACUAUAAAAGGGAACCUAUAAAUGUAGUUUCAUCUGUCGUCAAUUACUGCAGAAAAUUAUGUGUAUCCACAACCUAGUUAUUUUACAACAGAGGAUUGAGCAUCA
B18: chr1:13223334:13223905:-|CDS|ENSG00000279804|control|control|control (ssRNA)
RNA: GGGAGUUCUACAGUCCGACGAUCUCUUGAGCCCCUCCGAGCUCUGCUAGAGAAAGUUGCUGCCACUCUUCAGACCCUCUUCUUAGUGGACUGUGGGAUUGGGUACUCCAAACUCAGGGUCAUCCUGCCUGCCCUGAGCCGCUGCAACAGAGGAUUGAGCAUCA
B19: chr8:18529670:18529771:-|3pUTR|ENSG00000156011|msi1|total|mutant (ssRNA)
RNA: GGGAGUUCUACAGUCCGACGAUCUAAAGCCAUGGAGUUUAUAAAGCCAAGUAACCAUUUGAUAUGGAUAAUAAUAUCUACUCCCGAGAGAGUAUAUAUAUGCACAUUGAUUUUUAAUGCUGUUAAGAUACUUUUGUAAAACUGCAACAGAGGAUUGAGCAUCA
B20: chr2:101892430:101892531:+|3pUTR|ENSG00000071054|msi1|FALSE|unique (ssRNA)
RNA: GGGAGUUCUACAGUCCGACGAUCCCAUUAGAGGUUGAUGGGGCAACUGCAGCCCAUGACACAAGAUCUCAUUGUUCUCGAUGUAGAGGGGUUGGUAGCAGACAGGUGGUUACAUUAGAAUAGUCACACAAACUGUUCAGUGUUCAACAGAGGAUUGAGCAUCA
B21: chr4:112276399:112276500:-|3pUTR|ENSG00000145365|unk|total|mutant (ssRNA)
RNA: GGGAGUUCUACAGUCCGACGAUCUUAUUCCCUGUGAUGCCCAGAGUAAUGGCCCAUCCAAAGAUGUCCAGAUGUCCAUGUGCCCGUCUCCAGAACUUGUAACUGUGUUGUUAUGUGGCAAAGGGGAAUGAAGGCUGCAGAUGGCAACAGAGGAUUGAGCAUCA
B22: chr1:204551843:204551944:+|3pUTR|ENSG00000198625|unk|total|mutant (ssRNA)
RNA: GGGAGUUCUACAGUCCGACGAUCAGUGUUCCUGGAAUCUCUAUGCAAGUUUUAUACAGAACAUACUUUUGGAAUCCUUGCCCCCGACAGGGGUGUCCAAUCUUUUGGCUUCCCUGGUCCACAAUGGAAGAAGAAUUGUCUUGGCAACAGAGGAUUGAGCAUCA

Each binder was assayed against MSI1 full-length (mouse, UniProt Q61474 1-362) (assay: nsRBNS (natural sequence RNA bind-n-seq); RBNS binding buffer (assumed for nsRBNS): 25 mM Tris pH 7.5, 150 mM KCl, 3 mM MgCl2, 0.01% Triton X-100, 500 ug/ml BSA, 20 U/ml SUPERase-In, 4 C; UNK is unkempt and MSI1 is Musashi-1; names of the RNAs are library labels; protein concentration not given here; high values mean tight binding).
Chain of UniProt Q61474 (Q61474 whole entry): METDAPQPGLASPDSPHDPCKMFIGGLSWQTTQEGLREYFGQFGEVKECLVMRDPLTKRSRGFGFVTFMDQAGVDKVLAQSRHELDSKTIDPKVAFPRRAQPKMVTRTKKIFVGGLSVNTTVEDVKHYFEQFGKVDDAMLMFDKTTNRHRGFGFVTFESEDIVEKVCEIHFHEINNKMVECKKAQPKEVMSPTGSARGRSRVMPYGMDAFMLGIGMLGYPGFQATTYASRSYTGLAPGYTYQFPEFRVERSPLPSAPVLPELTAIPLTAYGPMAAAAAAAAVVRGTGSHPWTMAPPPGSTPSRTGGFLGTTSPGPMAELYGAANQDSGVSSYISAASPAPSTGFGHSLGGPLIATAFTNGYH

Row | Binder | binding signal [enrichment R]
1 | B1 | 0.427
2 | B2 | 0.395
3 | B3 | 0.565
4 | B4 | 0.248
5 | B5 | 1.27
6 | B6 | 2.05
7 | B7 | 0.498
8 | B8 | 0.573
9 | B9 | 0.366
10 | B10 | 0.539
11 | B11 | 5.71
12 | B12 | 0.379
13 | B13 | 0.952
14 | B14 | 0.597
15 | B15 | 0.665
16 | B16 | 0.442
17 | B17 | 4.06
18 | B18 | 0.637
19 | B19 | 0.648
20 | B20 | 0.751
21 | B21 | 0.394
22 | B22 | 0.211
